Experimental data taken from article PMC6400558 (2019).
These are yes or no findings as the source states them, for the method shown. For some assays here: In cells and extracts the contact can be indirect. Some binding calls cover weakened binding; strength is not graded here. For some assays here: Tags and fused reporters may be left off the sequences shown.

The chains behind the UniProt entries cited, without tags or fusion partners. Residues count along the entry.
UniProt Q9Y6G9, residues 389-523: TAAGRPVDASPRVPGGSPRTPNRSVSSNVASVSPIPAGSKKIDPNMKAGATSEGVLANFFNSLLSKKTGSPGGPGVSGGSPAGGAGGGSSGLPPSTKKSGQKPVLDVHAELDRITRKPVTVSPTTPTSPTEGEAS
UniProt Q14203: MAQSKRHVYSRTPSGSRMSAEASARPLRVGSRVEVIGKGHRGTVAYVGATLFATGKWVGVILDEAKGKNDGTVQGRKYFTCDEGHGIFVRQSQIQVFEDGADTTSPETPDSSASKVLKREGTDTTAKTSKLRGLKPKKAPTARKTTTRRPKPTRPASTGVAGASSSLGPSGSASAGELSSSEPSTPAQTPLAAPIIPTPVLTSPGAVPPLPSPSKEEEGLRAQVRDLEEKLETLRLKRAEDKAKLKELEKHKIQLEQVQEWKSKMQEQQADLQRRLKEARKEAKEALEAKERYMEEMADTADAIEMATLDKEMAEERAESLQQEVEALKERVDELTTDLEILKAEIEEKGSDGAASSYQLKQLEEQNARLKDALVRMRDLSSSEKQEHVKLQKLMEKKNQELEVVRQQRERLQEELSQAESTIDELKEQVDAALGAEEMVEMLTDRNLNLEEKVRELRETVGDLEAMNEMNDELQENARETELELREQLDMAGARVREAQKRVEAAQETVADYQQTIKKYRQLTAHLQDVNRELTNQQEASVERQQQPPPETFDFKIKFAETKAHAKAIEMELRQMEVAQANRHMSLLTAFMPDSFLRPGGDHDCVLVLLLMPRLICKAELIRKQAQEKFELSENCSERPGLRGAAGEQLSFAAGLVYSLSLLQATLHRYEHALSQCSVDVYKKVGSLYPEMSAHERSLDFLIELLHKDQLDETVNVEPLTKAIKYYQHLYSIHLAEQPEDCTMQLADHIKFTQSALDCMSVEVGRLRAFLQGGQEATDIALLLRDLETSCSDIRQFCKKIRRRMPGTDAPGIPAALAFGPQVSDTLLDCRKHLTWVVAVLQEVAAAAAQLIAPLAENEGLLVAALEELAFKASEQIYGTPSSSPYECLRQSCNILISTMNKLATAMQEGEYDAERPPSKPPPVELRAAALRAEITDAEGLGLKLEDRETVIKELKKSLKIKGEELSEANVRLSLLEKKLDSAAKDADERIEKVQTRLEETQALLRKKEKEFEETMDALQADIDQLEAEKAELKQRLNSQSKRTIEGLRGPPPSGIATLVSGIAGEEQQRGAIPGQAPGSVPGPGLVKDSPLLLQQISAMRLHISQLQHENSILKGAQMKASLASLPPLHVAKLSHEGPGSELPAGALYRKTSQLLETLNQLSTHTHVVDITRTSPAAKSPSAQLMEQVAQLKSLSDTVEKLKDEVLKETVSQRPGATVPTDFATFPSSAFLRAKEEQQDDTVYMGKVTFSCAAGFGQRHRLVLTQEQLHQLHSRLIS
UniProt Q96GD4: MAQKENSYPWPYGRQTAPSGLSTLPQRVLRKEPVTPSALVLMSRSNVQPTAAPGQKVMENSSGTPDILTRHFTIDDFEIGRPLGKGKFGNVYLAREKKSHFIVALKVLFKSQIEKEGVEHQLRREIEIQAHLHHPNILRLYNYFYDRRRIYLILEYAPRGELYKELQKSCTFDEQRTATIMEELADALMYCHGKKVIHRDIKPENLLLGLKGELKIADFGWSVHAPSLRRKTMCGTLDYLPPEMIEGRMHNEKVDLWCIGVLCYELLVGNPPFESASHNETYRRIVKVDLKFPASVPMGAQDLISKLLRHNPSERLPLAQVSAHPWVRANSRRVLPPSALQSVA
UniProt Q13561: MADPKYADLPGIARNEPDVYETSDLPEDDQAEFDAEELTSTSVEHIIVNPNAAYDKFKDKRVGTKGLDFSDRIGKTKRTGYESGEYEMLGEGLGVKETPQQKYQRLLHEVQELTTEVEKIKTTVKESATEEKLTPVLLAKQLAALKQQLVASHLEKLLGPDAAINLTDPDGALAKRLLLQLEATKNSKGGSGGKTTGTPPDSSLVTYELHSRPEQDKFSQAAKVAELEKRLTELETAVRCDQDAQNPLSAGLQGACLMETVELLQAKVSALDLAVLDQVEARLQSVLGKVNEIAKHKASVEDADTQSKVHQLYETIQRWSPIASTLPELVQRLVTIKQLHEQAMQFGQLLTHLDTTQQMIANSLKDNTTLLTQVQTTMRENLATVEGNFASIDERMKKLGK
UniProt P61163: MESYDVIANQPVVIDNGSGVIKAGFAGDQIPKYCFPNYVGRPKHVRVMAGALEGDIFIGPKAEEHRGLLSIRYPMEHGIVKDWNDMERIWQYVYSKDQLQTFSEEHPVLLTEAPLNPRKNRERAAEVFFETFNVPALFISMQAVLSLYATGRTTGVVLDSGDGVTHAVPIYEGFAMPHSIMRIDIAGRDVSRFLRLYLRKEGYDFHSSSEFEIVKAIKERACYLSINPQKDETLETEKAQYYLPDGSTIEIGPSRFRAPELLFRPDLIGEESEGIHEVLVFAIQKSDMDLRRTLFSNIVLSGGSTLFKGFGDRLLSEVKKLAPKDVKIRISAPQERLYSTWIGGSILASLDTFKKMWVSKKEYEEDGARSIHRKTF

T1: Hook2 (endogenous) (human (endogenous in HEK293T)) (UniProt Q96ED9)
T1 sequence: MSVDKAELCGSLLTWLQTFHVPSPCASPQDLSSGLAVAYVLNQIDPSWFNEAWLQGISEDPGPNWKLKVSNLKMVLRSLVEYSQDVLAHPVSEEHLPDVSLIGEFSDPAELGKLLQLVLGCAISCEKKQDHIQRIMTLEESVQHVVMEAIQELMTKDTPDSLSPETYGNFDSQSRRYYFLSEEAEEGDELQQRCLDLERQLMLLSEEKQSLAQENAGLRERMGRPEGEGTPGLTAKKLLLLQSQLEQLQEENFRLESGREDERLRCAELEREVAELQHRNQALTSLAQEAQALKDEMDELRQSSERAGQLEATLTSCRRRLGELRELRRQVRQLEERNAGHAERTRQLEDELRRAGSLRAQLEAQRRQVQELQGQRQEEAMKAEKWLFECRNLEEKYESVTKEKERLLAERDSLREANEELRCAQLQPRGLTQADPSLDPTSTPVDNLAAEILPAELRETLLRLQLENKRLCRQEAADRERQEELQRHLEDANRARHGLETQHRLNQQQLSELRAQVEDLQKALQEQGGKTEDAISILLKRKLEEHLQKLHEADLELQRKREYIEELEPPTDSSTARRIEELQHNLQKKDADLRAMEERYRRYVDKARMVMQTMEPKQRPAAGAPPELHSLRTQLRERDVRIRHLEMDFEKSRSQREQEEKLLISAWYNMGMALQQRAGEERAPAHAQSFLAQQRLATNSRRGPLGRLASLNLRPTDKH


Tests used:
[1] = biological target: T1, Hook2 (endogenous) (human (endogenous in HEK293T)); assay: co-IP; endogenous proteins; HEK293T lysates in TAP lysis buffer (20 mM Tris-HCl pH 7.4, 150 mM NaCl, 0.5% NP-40) with antibody on protein-A/G beads, 3 h, 4°C; cells asynchronous or synchronized (G2, prometaphase, metaphase/anaphase, cytokinesis), with control or other siRNAs or Hook2 plasmids; immunoblot
[2] = biological target: GST-tagged LIC1 (389–523 aa) (UniProt Q9Y6G9); assay: pull-down; 2 µg MBP-tagged Hook2 fragments incubated with GST or GST-LIC1 (389–523 aa) on glutathione beads, 2 h, 250 µl of 50 mM Tris pH 7.4, 100 mM NaCl, 1 mM DTT, 0.1% Tween 20, 2 mg/ml BSA; immunoblot anti-MBP; both purified
[3] = biological target: p150^glued (human (endogenous in HEK293T)) (UniProt Q14203); assay: co-IP; lysates of HEK293T cells transfected with HA-tagged Hook2 (WT, Q143A, I150A; also siRNA-resistant forms in Hook2 siRNA-treated cells); IP with anti-DIC or anti-p150^glued, immunoblot anti-HA

Row | Molecule | binding [1] | binding [2] | also measured
1 | Aurora B kinase (from UniProt Q96GD4 1-344) | binds |  | 
2 | p50/dynamitin (from UniProt Q13561 1-401) | binds |  | 
3 | Arp1 (from UniProt P61163 1-376) | binds |  | 
4 | MBP-tagged Hook2 Hook+CC1A (N230) (domain or fragment, UniProt Q96ED9 1-230) MSVDKAELCGSLLTWLQTFHVPSPCASPQDLSSGLAVAYVLNQIDPSWFNEAWLQGISEDPGPNWKLKVSNLKMVLRSLVEYSQDVLAHPVSEEHLPDVSLIGEFSDPAELGKLLQLVLGCAISCEKKQDHIQRIMTLEESVQHVVMEAIQELMTKDTPDSLSPETYGNFDSQSRRYYFLSEEAEEGDELQQRCLDLERQLMLLSEEKQSLAQENAGLRERMGRPEGEGT |  | binds | 
5 | CYK4 (protein, UniProt Q9H0H5 1-632) MDTMMLNVRNLFEQLVRRVEILSEGNEVQFIQLAKDFEDFRKKWQRTDHELGKYKDLLMKAETERSALDVKLKHARNQVDVEIKRRQRAEADCEKLERQIQLIREMLMCDTSGSIQLSEEQKSALAFLNRGQPSSSNAGNKRLSTIDESGSILSDISFDKTDESLDWDSSLVKTFKLKKREKRRSTSRQFVDGPPGPVKKTRSIGSAVDQGNESIVAKTTVTVPNDGGPIEAVSTIETVPYWTRSRRKTGTLQPWNSDSTLNSRQLEPRTETDSVGTPQSNGGMRLHDFVSKTVIKPESCVPCGKRIKFGKLSLKCRDCRVVSHPECRDRCPLPCIPTLIGTPVKIGEGMLADFVSQTSPMIPSIVVHCVNEIEQRGLTETGLYRISGCDRTVKELKEKFLRVKTVPLLSKVDDIHAICSLLKDFLRNLKEPLLTFRLNRAFMEAAEITDEDNSIAAMYQAVGELPQANRDTLAFLMIHLQRVAQSPHTKMDVANLAKVFGPTIVAHAVPNPDPVTMLQDIKRQPKVVERLLSLPLEYWSQFMMVEQENIDPLHVIENSNAFSTPQTPDIKVSLLGPVTTPEHQLLKTPSSSSLSQRVRSTLTKNTPRFGSKSKSATNLGRQGNFFASPMLK | binds |  | 
6 | KIF4 (protein, UniProt O95239 1-1232) MKEEVKGIPVRVALRCRPLVPKEISEGCQMCLSFVPGEPQVVVGTDKSFTYDFVFDPSTEQEEVFNTAVAPLIKGVFKGYNATVLAYGQTGSGKTYSMGGAYTAEQENEPTVGVIPRVIQLLFKEIDKKSDFEFTLKVSYLEIYNEEILDLLCPSREKAQINIREDPKEGIKIVGLTEKTVLVALDTVSCLEQGNNSRTVASTAMNSQSSRSHAIFTISLEQRKKSDKNSSFRSKLHLVDLAGSERQKKTKAEGDRLKEGININRGLLCLGNVISALGDDKKGGFVPYRDSKLTRLLQDSLGGNSHTLMIACVSPADSNLEETLNTLRYADRARKIKNKPIVNIDPQTAELNHLKQQVQQLQVLLLQAHGGTLPGSITVEPSENLQSLMEKNQSLVEENEKLSRGLSEAAGQTAQMLERIILTEQANEKMNAKLEELRQHAACKLDLQKLVETLEDQELKENVEIICNLQQLITQLSDETVACMAAAIDTAVEQEAQVETSPETSRSSDAFTTQHALRQAQMSKELVELNKALALKEALARKMTQNDSQLQPIQYQYQDNIKELELEVINLQKEKEELVLELQTAKKDANQAKLSERRRKRLQELEGQIADLKKKLNEQSKLLKLKESTERTVSKLNQEIRMMKNQRVQLMRQMKEDAEKFRQWKQKKDKEVIQLKERDRKRQYELLKLERNFQKQSNVLRRKTEEAAAANKRLKDALQKQREVADKRKETQSRGMEGTAARVKNWLGNEIEVMVSTEEAKRHLNDLLEDRKILAQDVAQLKEKKESGENPPPKLRRRTFSLTEVRGQVSESEDSITKQIESLETEMEFRSAQIADLQQKLLDAESEDRPKQRWENIATILEAKCALKYLIGELVSSKIQVSKLESSLKQSKTSCADMQKMLFEERNHFAEIETELQAELVRMEQQHQEKVLYLLSQLQQSQMAEKQLEESVSEKEQQLLSTLKCQDEELEKMREVCEQNQQLLRENEIIKQKLTLLQVASRQKHLPKDTLLSPDSSFEYVPPKPKPSRVKEKFLEQSMDIEDLKYCSEHSVNEHEDGDGDDDEGDDEEWKPTKLVKVSRKNIQGCSCKGWCGNKQCGCRKQKSDCGVDCCCDPTKCRNRQQGKDSLGTVERTQDSEGSFKLEDPTEVTPGLSFFNPVCATPNSKILKEMCDVEQVLSKKTPPAPSPFDLPELKHVATEYQENKAPGKKKKRALASNTSFFSGCSPIEEEAH | binds |  | 
7 | MBP-tagged Hook2-Hook (N179) (domain or fragment, UniProt Q96ED9 1-179) MSVDKAELCGSLLTWLQTFHVPSPCASPQDLSSGLAVAYVLNQIDPSWFNEAWLQGISEDPGPNWKLKVSNLKMVLRSLVEYSQDVLAHPVSEEHLPDVSLIGEFSDPAELGKLLQLVLGCAISCEKKQDHIQRIMTLEESVQHVVMEAIQELMTKDTPDSLSPETYGNFDSQSRRYYF |  | binds | 
8 | HA-tagged Hook2 WT (protein, UniProt Q96ED9 1-719) MSVDKAELCGSLLTWLQTFHVPSPCASPQDLSSGLAVAYVLNQIDPSWFNEAWLQGISEDPGPNWKLKVSNLKMVLRSLVEYSQDVLAHPVSEEHLPDVSLIGEFSDPAELGKLLQLVLGCAISCEKKQDHIQRIMTLEESVQHVVMEAIQELMTKDTPDSLSPETYGNFDSQSRRYYFLSEEAEEGDELQQRCLDLERQLMLLSEEKQSLAQENAGLRERMGRPEGEGTPGLTAKKLLLLQSQLEQLQEENFRLESGREDERLRCAELEREVAELQHRNQALTSLAQEAQALKDEMDELRQSSERAGQLEATLTSCRRRLGELRELRRQVRQLEERNAGHAERTRQLEDELRRAGSLRAQLEAQRRQVQELQGQRQEEAMKAEKWLFECRNLEEKYESVTKEKERLLAERDSLREANEELRCAQLQPRGLTQADPSLDPTSTPVDNLAAEILPAELRETLLRLQLENKRLCRQEAADRERQEELQRHLEDANRARHGLETQHRLNQQQLSELRAQVEDLQKALQEQGGKTEDAISILLKRKLEEHLQKLHEADLELQRKREYIEELEPPTDSSTARRIEELQHNLQKKDADLRAMEERYRRYVDKARMVMQTMEPKQRPAAGAPPELHSLRTQLRERDVRIRHLEMDFEKSRSQREQEEKLLISAWYNMGMALQQRAGEERAPAHAQSFLAQQRLATNSRRGPLGRLASLNLRPTDKH |  |  | binding [3]: binds
9 | MBP-tagged Hook2 Hook+CC1 (N427) WT (domain or fragment, UniProt Q96ED9 1-427) MSVDKAELCGSLLTWLQTFHVPSPCASPQDLSSGLAVAYVLNQIDPSWFNEAWLQGISEDPGPNWKLKVSNLKMVLRSLVEYSQDVLAHPVSEEHLPDVSLIGEFSDPAELGKLLQLVLGCAISCEKKQDHIQRIMTLEESVQHVVMEAIQELMTKDTPDSLSPETYGNFDSQSRRYYFLSEEAEEGDELQQRCLDLERQLMLLSEEKQSLAQENAGLRERMGRPEGEGTPGLTAKKLLLLQSQLEQLQEENFRLESGREDERLRCAELEREVAELQHRNQALTSLAQEAQALKDEMDELRQSSERAGQLEATLTSCRRRLGELRELRRQVRQLEERNAGHAERTRQLEDELRRAGSLRAQLEAQRRQVQELQGQRQEEAMKAEKWLFECRNLEEKYESVTKEKERLLAERDSLREANEELRCAQLQ |  | binds | 
10 | MBP-tagged Hook2 N427 I150A (domain or fragment, UniProt Q96ED9 1-427) MSVDKAELCGSLLTWLQTFHVPSPCASPQDLSSGLAVAYVLNQIDPSWFNEAWLQGISEDPGPNWKLKVSNLKMVLRSLVEYSQDVLAHPVSEEHLPDVSLIGEFSDPAELGKLLQLVLGCAISCEKKQDHIQRIMTLEESVQHVVMEAAQELMTKDTPDSLSPETYGNFDSQSRRYYFLSEEAEEGDELQQRCLDLERQLMLLSEEKQSLAQENAGLRERMGRPEGEGTPGLTAKKLLLLQSQLEQLQEENFRLESGREDERLRCAELEREVAELQHRNQALTSLAQEAQALKDEMDELRQSSERAGQLEATLTSCRRRLGELRELRRQVRQLEERNAGHAERTRQLEDELRRAGSLRAQLEAQRRQVQELQGQRQEEAMKAEKWLFECRNLEEKYESVTKEKERLLAERDSLREANEELRCAQLQ |  | no binding | 
11 | MBP-tagged Hook2 N427 Q143A (domain or fragment, UniProt Q96ED9 1-427) MSVDKAELCGSLLTWLQTFHVPSPCASPQDLSSGLAVAYVLNQIDPSWFNEAWLQGISEDPGPNWKLKVSNLKMVLRSLVEYSQDVLAHPVSEEHLPDVSLIGEFSDPAELGKLLQLVLGCAISCEKKQDHIQRIMTLEESVAHVVMEAIQELMTKDTPDSLSPETYGNFDSQSRRYYFLSEEAEEGDELQQRCLDLERQLMLLSEEKQSLAQENAGLRERMGRPEGEGTPGLTAKKLLLLQSQLEQLQEENFRLESGREDERLRCAELEREVAELQHRNQALTSLAQEAQALKDEMDELRQSSERAGQLEATLTSCRRRLGELRELRRQVRQLEERNAGHAERTRQLEDELRRAGSLRAQLEAQRRQVQELQGQRQEEAMKAEKWLFECRNLEEKYESVTKEKERLLAERDSLREANEELRCAQLQ |  | no binding | 
